Assay results published in the supplement of paper PMC10320760.
Single values of this set are uncertain.

B1: Ydj1; a variant is named by its letters at X, in order (parent)
chain: MVKETKFYDILGVPVTATDVEIKKAYRKCALKYHPDKNPSEEAAEKFKEASAAYEILSDPEKRDIYDQFGEDGLSGAGGAGGFPGGGFGFGDDIFSQFFGAGGAQRPRGPQRGKDIKHEISASLEELYKGRTAKLALNKQILCKECEGRGGKKGAVKKCTSCNGQGIKFVTRQMGPMIQRFQTECDVCHGTGDIIDPKDRCKSCNGKKVENERKILEVHVEPGMKDGQRIVFKGEADQAPDVIPGDVVFIVSERPHKSFKRDGDDLVYEAEIDLLTAIAGGEFALEHVSGDWLKVGIVPGEVIAPGMRKVIEGKGMPIPKYGGYGNLIIKFTIKFPENHFTSEENLKKLEEILPPRIVPAIPKKATVDECVLADFDPAKYNRTRASRGGANYDSDEEEQGGEGVQCXXX

Variants of: B1
Assay: enrichment factor, frequency at 37 °C / frequency at 25 °C (thermotolerance selection) (ratio); higher = more growth at 37 °C, higher likelihood of farnesylation
Conditions: with Saccharomyces cerevisiae ydj1Δ (yWS304); selective temperature 37 °C; reference temperature 25 °C
Procedure: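 Pooled library of all 8,000 Ydj1-CXXX C-terminal motif variants (native CASQ replaced by C + three variable residues, one codon per amino acid) expressed from a CEN plasmid in S. cerevisiae ydj1Δ (yWS304). The library was grown in SC-Ura liquid to A600 ~2 (~8 generations) at permissive 25 °C or selective 37 °C. Reads from 8 and 7 replicates were pooled and variants counted by NGS. Enrichment factor = frequency at 37 °C / frequency at 25 °C, with a +1 correction; it reports Ydj1-dependent thermotolerance, used as a read-out of farnesylation by yeast FTase.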
Variant VEY has an enrichment factor of 0.268.
In the case of VEW, the enrichment factor is reported as 0.169.
For VES, the enrichment factor was 1.27.
In the case of VET, the enrichment factor is reported as 1.4.
Work on VEV yielded an enrichment factor of 1.26.
In the case of LES, the enrichment factor is reported as 1.28.
LEW was tested, and the enrichment factor was 0.122.
Variant LEY has an enrichment factor of 0.127.
LET was tested, and the enrichment factor was 0.594.
LEV gave an enrichment factor of 0.526.
WES gave an enrichment factor of 1.5.
With WEV the enrichment factor was 1.65.
Work on WEW yielded an enrichment factor of 1.67.
In the case of WEY, the enrichment factor is reported as 1.65.
WET gave an enrichment factor of 1.82.
KEW was tested, and the enrichment factor was 0.172.
Work on KES yielded an enrichment factor of 1.37.
KEY showed an enrichment factor of 0.189.
With KEV the enrichment factor was 0.16.
Work on KET yielded an enrichment factor of 0.168.
With PET the enrichment factor was 0.273.
With PEV the enrichment factor was 0.317.
In the case of PEY, the enrichment factor is reported as 0.139.
With PEW the enrichment factor was 0.14.
Variant PES has an enrichment factor of 1.3.
KFL gave an enrichment factor of 1.1.
KFG was tested, and the enrichment factor was 1.38.
Variant KFF has an enrichment factor of 1.06.
KFA gave an enrichment factor of 2.83.
For KFC, the enrichment factor was 0.109.
KFM showed an enrichment factor of 0.681.
Variant KFI has an enrichment factor of 1.54.
Variant KFH has an enrichment factor of 1.83.
In the case of KFK, the enrichment factor is reported as 0.269.
Work on KFN yielded an enrichment factor of 2.32.
Variant KFD has an enrichment factor of 1.78.
KFE was tested, and the enrichment factor was 1.69.
Variant REW has an enrichment factor of 0.141.
Variant RET has an enrichment factor of 0.369.
Variant REV has an enrichment factor of 0.291.
REY gave an enrichment factor of 0.173.
Variant RES has an enrichment factor of 1.42.
CFE was tested, and the enrichment factor was 2.26.
For CFK, the enrichment factor was 0.42.
For CFI, the enrichment factor was 1.65.
With CFC the enrichment factor was 0.695.
CFG was tested, and the enrichment factor was 1.45.
CFN showed an enrichment factor of 0.993.
Variant CFF has an enrichment factor of 0.531.
CFA was tested, and the enrichment factor was 1.88.
For CFH, the enrichment factor was 0.886.
CFL showed an enrichment factor of 0.386.
For CFD, the enrichment factor was 1.07.
In the case of CFM, the enrichment factor is reported as 0.338.
Work on RFN yielded an enrichment factor of 5.1.
RFL showed an enrichment factor of 1.9.
RFM showed an enrichment factor of 1.42.
RFC gave an enrichment factor of 0.347.
Variant RFG has an enrichment factor of 1.99.
With RFE the enrichment factor was 1.67.
Variant RFH has an enrichment factor of 1.97.
For RFK, the enrichment factor was 0.395.
Variant RFD has an enrichment factor of 2.02.
RFA was tested, and the enrichment factor was 1.93.
In the case of RFF, the enrichment factor is reported as 0.579.
For RFI, the enrichment factor was 1.54.
Work on QET yielded an enrichment factor of 0.193.
In the case of QEV, the enrichment factor is reported as 0.339.
With QES the enrichment factor was 0.958.
QEW was tested, and the enrichment factor was 0.271.
Variant QEY has an enrichment factor of 0.113.
SFH showed an enrichment factor of 4.48.
Work on SFG yielded an enrichment factor of 2.98.
With SFC the enrichment factor was 0.618.
For SFM, the enrichment factor was 0.526.
Variant SFI has an enrichment factor of 0.579.
Variant SFE has an enrichment factor of 1.68.
In the case of SFL, the enrichment factor is reported as 2.35.
SFA was tested, and the enrichment factor was 3.14.
For SFD, the enrichment factor was 1.25.
For SFF, the enrichment factor was 2.42.
With SFN the enrichment factor was 1.48.
SFK gave an enrichment factor of 0.455.
With FEW the enrichment factor was 0.379.
Work on FEV yielded an enrichment factor of 1.12.
With FEY the enrichment factor was 0.169.
In the case of FET, the enrichment factor is reported as 1.39.
In the case of GFI, the enrichment factor is reported as 2.11.
In the case of GFC, the enrichment factor is reported as 0.219.
For GFH, the enrichment factor was 2.06.
GFG gave an enrichment factor of 1.97.
Variant GFF has an enrichment factor of 1.43.
For GFN, the enrichment factor was 1.81.
GFL gave an enrichment factor of 1.78.
With GFM the enrichment factor was 1.1.
In the case of GFE, the enrichment factor is reported as 0.611.
Variant GFK has an enrichment factor of 0.112.
GFA was tested, and the enrichment factor was 1.56.
Work on GFD yielded an enrichment factor of 0.491.
In the case of MFI, the enrichment factor is reported as 0.772.
MFA was tested, and the enrichment factor was 0.811.
With MFM the enrichment factor was 0.737.
For MFC, the enrichment factor was 0.356.
MFF showed an enrichment factor of 1.47.
Work on MFK yielded an enrichment factor of 0.353.
For MFH, the enrichment factor was 5.13.
MFE showed an enrichment factor of 1.71.
For MFL, the enrichment factor was 2.04.
Work on MFD yielded an enrichment factor of 1.71.
Variant MFG has an enrichment factor of 3.19.
With MFN the enrichment factor was 1.54.
GEV showed an enrichment factor of 0.164.
GEY showed an enrichment factor of 0.126.
With GET the enrichment factor was 0.147.
In the case of GEW, the enrichment factor is reported as 0.111.
FFF gave an enrichment factor of 1.87.
In the case of FFL, the enrichment factor is reported as 1.77.
In the case of FFI, the enrichment factor is reported as 2.24.
Work on FFE yielded an enrichment factor of 0.884.
FFP was tested, and the enrichment factor was 1.19.
For FFG, the enrichment factor was 0.894.
FFN was tested, and the enrichment factor was 3.47.
In the case of FFD, the enrichment factor is reported as 0.88.
FFK gave an enrichment factor of 0.284.
FFH gave an enrichment factor of 1.87.
For FFA, the enrichment factor was 3.47.
In the case of FFC, the enrichment factor is reported as 0.604.
With PFK the enrichment factor was 0.881.
For PFG, the enrichment factor was 1.28.
Work on PFA yielded an enrichment factor of 1.29.
Work on PFM yielded an enrichment factor of 0.822.
Variant PFH has an enrichment factor of 2.13.
With PFI the enrichment factor was 0.993.
PFN showed an enrichment factor of 1.78.
PFD gave an enrichment factor of 1.82.
With PFE the enrichment factor was 1.5.
PFC showed an enrichment factor of 1.38.
PFF was tested, and the enrichment factor was 0.386.
PFL gave an enrichment factor of 1.04.
With HET the enrichment factor was 0.474.
HEV gave an enrichment factor of 0.821.
HEY was tested, and the enrichment factor was 0.136.
HEW was tested, and the enrichment factor was 0.29.
EFP showed an enrichment factor of 0.202.
EFM showed an enrichment factor of 0.842.
EFH showed an enrichment factor of 3.32.
Variant EFK has an enrichment factor of 1.05.
Work on EFE yielded an enrichment factor of 1.38.
For EFD, the enrichment factor was 1.23.
In the case of EFN, the enrichment factor is reported as 2.12.
EFL gave an enrichment factor of 1.86.
For EFG, the enrichment factor was 1.28.
EFF was tested, and the enrichment factor was 1.31.
With EFI the enrichment factor was 1.57.
In the case of EFC, the enrichment factor is reported as 1.16.
In the case of EFA, the enrichment factor is reported as 2.32.
NES gave an enrichment factor of 0.506.
NEY was tested, and the enrichment factor was 0.214.
NEV showed an enrichment factor of 0.165.
In the case of NET, the enrichment factor is reported as 0.221.
Work on NEW yielded an enrichment factor of 0.199.
In the case of VFL, the enrichment factor is reported as 0.827.
VFN showed an enrichment factor of 0.98.
Variant VFC has an enrichment factor of 1.96.
VFA gave an enrichment factor of 2.32.
VFG gave an enrichment factor of 2.9.
VFK gave an enrichment factor of 2.34.
